In patent US20230348569A1:
Where “and” joins values, the source holds several entries; their conditions need not be identical. Identical values can stand only once. Like-named read-outs stand apart in the source and are kept apart here.

Key:
[1] = target: T1, SARS-COV-2-S RBD extracellular domain expressed with a C-terminal myc-myc-hexahistidine (SARS-COV-2 RBD-MMH) (SARS-CoV-2); settings: remark: other sources report otherwise
[2] = target: T1, SARS-COV-2-S RBD extracellular domain …; settings: remark: other sources report otherwise; remark: listed apart in the source

Binder	t½ [1]	t½ [2]
mAb10921 (antibody) heavy: EVQLVESGGGLVQPGGSLRLSCAASGITVSSNYMSWVRQAPGKGLEWVSVIYSGGSTFYADSVKGRFTISRHNSKNTLYLQMNSLRAEDTAVYYCARERNFDAFDIWGQGTMVTVSS[human IgG1 constant region left out here] light: DIQMTQSPSSVSASVGDRVTITCRASQGISSWLAWYQQKPGKAPKLLIYAASSLQSGVPSRFSGSGSGTDFTLTISSLQPEDFATYYCQQANSFPLFTFGPGTKVDIKRTVAAPSVFIFPPSDEQLKSGTASVVCLLNNFYPREAKVQWKVDNALQSGNSQESVTEQDSKDSTYSLSSTLTLSKADYEKHKVYACEVTHQGLSSPVTKSFNRGEC	36 s	
mAb10930 (antibody) heavy: EVQLVESGGGLVQPGRSLRLSCAASGFTFDDYAMYWVRQAPGKGLEWVSGISWNSGSIGYADSVKGRFTISRDNAKNSLYLQMNSLRAADTALYYCAKDKDWNSRGYYYYGMDVWGQGTTVTVSS[human IgG1 constant region left out here] light: [about 100 residues left out here][about 100 residues left out here]	42 s	60 s
mAb10920 (antibody) heavy: QVQLVESGGGVVQPGRSLRLSCAASGFTFSYYGMHWVRQAPGKGLEWVAVIWYDGSNKFYADSVKGRFTISRDNSKNTLYLQMNSLRAEDTAVYYCAAARPGYYYGMDVWGQGTTVTVSS[human IgG1 constant region left out here] light: DIQMTQSPSSLSASVGDRVTITCRASQGISNYLAWFQQKPGKAPNSLIYAASSLQRGVPSKFSGSGSGTDFTLTISSLQPEDFATYYCQQYNSYPRTFGQGTKVEIKRTVAAPSVFIFPPSDEQLKSGTASVVCLLNNFYPREAKVQWKVDNALQSGNSQESVTEQDSKDSTYSLSSTLTLSKADYEKHKVYACEVTHQGLSSPVTKSFNRGEC	12 s	24 s
mAb10935 (antibody) heavy: EVQLVESGGGLVQPGGSLRLSCAASGFTVSSNYMSWVRQAPGKGLEWVSLIYSGGSTYYADSVKGRFTISRHNSKNTLYLQMNSLRSEDTAVYYCARVPLGDYYYGMDVWGQGTTVTVSS[human IgG1 constant region left out here] light: DIQMTQSPSSLSASVGDRVTITCQASQDINKYLNWYQQKPGKAPKLLIYDASNLETGVPSRFSGSGSGTDFTFTISSLQPEDIATYYCQQSDNLPLTFGGGTKVEIKRTVAAPSVFIFPPSDEQLKSGTASVVCLLNNFYPREAKVQWKVDNALQSGNSQESVTEQDSKDSTYSLSSTLTLSKADYEKHKVYACEVTHQGLSSPVTKSFNRGEC	42 s	24 s and 54 s
mAb10938 (antibody) heavy: EVQLVESGGGLVQPGGSLRLSCAVSGFTVSSNYMSWVRQAPGKGLEWVSLIYSGGSTFYADSVKGRFTISRHNSKNTLYLQMNSLRAEDTAVYYCAREGGYSYDYNYWGQGTLVTVSS[human IgG1 constant region left out here] light: DIQMTQSPSSLSASVGDRVTITCQASQDIRNYLNWYQQKPGKAPKLLIYDASNLETGVPSRFSGIGSGTDFTFTISSLQPEDIATYYCQQYDNLPITFGQGTRLEIKRTVAAPSVFIFPPSDEQLKSGTASVVCLLNNFYPREAKVQWKVDNALQSGNSQESVTEQDSKDSTYSLSSTLTLSKADYEKHKVYACEVTHQGLSSPVTKSFNRGEC	234 s	
